These results are taken from patent US20240158448A1 (published 2024).

For the experiment, the target named is nS-L. Nature of the experiment: fluorescence microscopy saturation binding; fixed THP-1 macrophages.

B1: SIRPα (receptor)
chain: not shown
As usually defined, the Kd is the constant that tells how readily two partners part at equilibrium. With B1, the Kd came to 33 µM.
